B1: OR4K15 (parent)
chain: GUUAACGGUCAUAGGCCAUGGAAACUAGGAGCACCAUUUCGCUGCCAGUGAAGAAAUGAACAAAGAAAAUCUGGGCCAGGCAGGCAUCAAAAGAAAUAGUCUUGCGCUCAACCAGAAAGUCUGUAAUCAUUUUAAGGGUA

Read counts are not given, so values of variants with three or more changes are uncertain.

Variants of B1 are the subject of this series. Put plainly: self-cleavage, relative activity (ratio to wild type); higher = more cleavage; in vitro, sequencing; the parent is a self-cleaving ribozyme.
As for GUUAACGGUCAUAGGCCAUGGAAACUAGGAGCACCAUUUCGCUGCCGGUGAAGAAAUGAACAAAGAAAAUCUGGGCCAGGCAGGCAUCAAAAGAAAUAGUCUCGCGCUCAACCAGAAAGUCUGUAACCAUUUUAAGGGUA [A47G U103C U127C], the self-cleavage came out at 0.26. Consider GUUAACGGUCAUAGGCCAUGGAAACUAGGAGCACCAUUUCGCUGCCUGUGAAGAAAUGAACAGAGAAAAUCUGGGCCAGGCAGGCAUCGAAAGAAAUAGUCUUGCGCUCAACCAGAAAGUCUGUAAUCAUUUUAAGGGUA [A47U A63G A89G], for which the self-cleavage amounted to 0.68. As for GUUAACGGUCAUAGGCCAUGGAAACUAGGAGCACCAUUUCGCUGCCGGUGAAGAAACGAACAAAGAAAAUCUGGGCCAGGCAGGCAUCAAAAGAAAUAGUCUUGCGCUCAACCAGAAAGUCUGUAAUCAUUCUAAGGGUA [A47G U57C U132C], the figure is 0.74. As for GUUAACGGUCAUAGGCCAUGGAAACUAGGAGCACCAUUUCGCUGCCGGUGAAGAAAUGAACAAAGAAAAUCUGGGCCAGGCAGGCAUCAAAAGAAAUAGUUUUGCGCUCAACCAGAAAGUCUGUAAUCAUUUUAGGGGUA [A47G C101U A135G], the figure is 0.21; as for GUUAACGGUCAUAGGCCAUGGAAACUAGGAGCACCAUUUCGCUGCCGGUGAAGAAAUGAACAAAGAAAAUCUGGGCCAGGCAGGCAUCAAGAGAAGUAGUCUUGCGCUCAACCAGAAAGUCUGUAAUCAUUUUAAGGGUA [A47G A91G A96G], 1.15; as for GUUAACGGUCAUAGGCCAUGGAAACUAGGAGCACCAUUUCGCUGCCUGUGAAGAGAUGAACAAAGAAAAUCUGGGCCAGGCAGGCAUCAAAAGGAAUAGUCUUGCGCUCAACCAGAAAGUCUGUAAUCAUUUUAAGGGUA [A47U A55G A94G], 0.55.

Turning to GUUAACGGUCAUAGGCCAUGGAAACUAGGAGCACCAUUUCGCUGCCGGUGAAGAAAUGAACAAAGAAAAUCUGGCCCAGGCAGGCAUCAAAAGAAAUAGUCUUGCGCUCAACCUGAAAGUCUGUAAUCAUUUUAAGGGUA [A47G G75C A114U], the self-cleavage worked out at 0.01. As for GUUAACGGUCAUAGGCCAUGGAAACUAGGAGCACCAUUUCGCUGCCGGUGAAGAAAUGAACAAAGAAAAUCUGGGCCAGGCAGGCAUCAAAAGAAAUAGUCUUGCGCCCAACCAGAAAGUCCGUAAUCAUUUUAAGGGUA [A47G U108C U122C], the figure is 0.01; as for GUUAACGGUCAUAGGCCAUGGAAACUAGGAGCACCAUUUCGCUGCCUGUGAAGAAAUGAGCAAAGAAAAUCUGGGCCAGGCAGGCAUCAAAAGAAAUAGUCUUGCGCUCAACCAGAAAGUCUGUAAUCAAUCUAAGGGUA [A47U A60G U130A U132C], 0.56; as for GUUAACGGUCAUAGGCCAUGGAAACUAGGAGCACCAUUUCGCUGCCGGUGAAGAAAUGAACAAAGAAAAUCUGGGCCAGGCAGGCAUCUAAAGAAAUAGUCCCGCGCUCAACCAGAAAGUCUGUAAUCAUUUUAAGGGUA [A47G A89U U102C U103C], 0.14. For the variant GUUAACGGUCAUAGGCCAUGGAAACUAGGAGCACCAUUUCGCUGCCGGUGAAGAAAUGAACAAAGAAAAUCUGGGCCAGGCAGGCAUCAAAAGAAAUAGACUUGCGCUCAACCAUAAAGUCUGUAAUCAUUUUAAGGGUA [A47G U100A G115U], the self-cleavage amounted to 0.01. As for GUUAACGGUCAUAGGCCAUGGAAACUAGGAGCACCAUUUCGCUGCCUGUGGAGAAAUGAACAAAGAAAAUCUGGGCCAGGCAGGCAUCAAAAGAAAUCGUCUUGCGCUCAACCAGAAAGUCUGUAAUCAUUUUAAGGGUA [A47U A51G A98C], the figure is 0.58; as for GUUAACGGUCAUAGGCCAUGGAAACUAGGAGCACCAUUUCGCUGCCUGUGGAGAAAUGAACAAAGAAAAUCUGGGCCAGGCAGGCAUCAAAAGAAGUAGUCUUGCGCUCAACCAGAGAGUCUGUAAUCAUUUUAAGGGUA [A47U A51G A96G A117G], 0.44. As for GUUAACGGUCAUAGGCCAUGGAAACUAGGAGCACCAUUUCGCUGCCUGUGAAGAAAUGAACAAUGAAAAUCUGGGCCAGGCAGGCAUCAAAAGAAAUAGUCUUGCGCUCAGCCAGAAAGUCUGUAAUCAUUUUAAGGGUA [A47U A64U A111G], the figure is 0.01; as for GUUAACGGUCAUAGGCCAUGGAAACUAGGAGCACCAUUUCGCUGCCGGUGAAGAAAUGAACAAAGAAAAUCUGGGCCAGGCAGGCAUCAAAAGAAAUAGUCUUGCGCCCAACCAGAAAGUCUGUAAUCAUUCUAGGGGUA [A47G U108C U132C A135G], 0. In the case of GUUAACGGUCAUAGGCCAUGGAAACUAGGAGCACCAUUUCGCUGCCGGUGAAGAAAUGAACAAAGAAAAACUGGGCCAGGCAGGCAUCAAAAGAAAUAGUCUUGCGCUCAACCAGAAAGUCUGUAAACAUUUUAAGGGUA [A47G U70A U127A], the self-cleavage is 0.75. As for GUUAACGGUCAUAGGCCAUGGAAACUAGGAGCACCAUUUCGCUGCCUGUGAGGAAAUGAACAAAGAAAAUCUGGGCCAGGCAGGCAUCAAAAGAAAUAGUCUUGCGCUCAACCAGAAAGUCUGUAAUCGUUUUAAGGGUA [A47U A52G A129G], the figure is 0.16.

GUUAACGGUCAUAGGCCAUGGAAACUAGGAGCACCAUUUCGCUGCCGGUGAAGAAAUGAACAAAGAAAAUCUGGGCCAGGCAGGCAUCAAAAGAAGUAGUCUUGCGCUCAACCAGAAAGACUGUAAUCAUUUUAAGGGUA [A47G A96G U120A]: the self-cleavage was 0.99. As for GUUAACGGUCAUAGGCCAUGGAAACUAGGAGCACCAUUUCGCUGCCUGUGGGGAAAUGAACAAAGAAAAUCUGGGCCAGGCAGGCAUCAAGAGAAAUAGUCUUGCGCCCAACCAGAAAGUCUGUAAUCAUUUUAAGGGUA [A47U A51G A52G A91G U108C], the figure is 0; as for GUUAACGGUCAUAGGCCAUGGAAACUAGGAGCACCAUUUCGCUGCCUGUGGAGAAAUGAACAAAGAAAAUCUGGGCCAGGCAGGCAUCAAAAGAGAUAGUCUUGCGCUCAACCAGAAAGUCUGUAAUCAUUUUAAGGGUA [A47U A51G A95G], 1.69.

These data come from the RNAGym collection of RNA variant scans (doi:10.7554/elife.90254).
